Source: patent US20210077638A1
Each block holds one binder with its values, some of them ahead of it.

How the values were obtained:
[1] = biological target: hMET.mmh (human) (UniProt P08581); test: SPR Biacore T-200, antibody captured by anti-human Fc, 90 nM hMET.mmh, 25 C
[2] = biological target: hMET.mmh (human) (UniProt P08581); test: SPR Biacore T-200, antibody captured by anti-human Fc, hMET.mmh injected, 25 C

Antigen Bound [1]: 26.4 RU/nm
Kd [2]: 8.36 nM
koff [2]: 0.00272 s⁻¹
kon [2]: 325000 M⁻¹ s⁻¹
t1/2 [2]: 4.25 min
B1: MET x MET bispecific antibody H4H14639D (unconjugated) (bispecific antibody, V domains shown)
VH 1: EVQLVESGGGLVQPGTSLRLSCAASGFTFDDYAMHWVRQAPGKGLEWVSGITWNSYNIDYADSVKGRFTISRDNAKNSLYLQMNSLRAEDTALYYCAKDDDYSNYVYFDYWGQGTLVTVSS
VH 2: EVQLVESGGGLVQPGGSLRLSCAASGFIVTTNYMTWLRQAPGKGLEWVSLIYSSGHTYYADSVKGRFTISRHNSKNTLYLQMDSLRAEDTAVYYCASAFAADVFDIWGQGTMVTVSS
VL: [here about 100 residues without letters]

Antigen Bound [1]: 48.4 RU/nm
Kd [2]: 4.38 nM
koff [2]: 0.00162 s⁻¹
kon [2]: 369000 M⁻¹ s⁻¹
t1/2 [2]: 7.14 min
B2: H4H14639D-DFO DAR 2.14 (bispecific antibody, V domains shown)
VH 1: B1 VH 1
VH 2: B1 VH 2
VL: [here about 100 residues without letters]
modifications: p-SCN-Bn-DFO on primary amines, sites not stated; average DAR 2.14 per antibody

Antigen Bound [1]: 47 RU/nm
Kd [2]: 6.47 nM
koff [2]: 0.00183 s⁻¹
kon [2]: 284000 M⁻¹ s⁻¹
t1/2 [2]: 6.3 min
B3: H4H14639D-DFO DAR 1.02 (bispecific antibody, V domains shown)
VH 1: B1 VH 1
VH 2: B1 VH 2
VL: [here about 100 residues without letters]
modifications: p-SCN-Bn-DFO on primary amines, sites not stated; average DAR 1.02 per antibody

Antigen Bound [1]: 26.7 RU/nm
Kd [2]: 7.9 nM
koff [2]: 0.00239 s⁻¹
kon [2]: 302000 M⁻¹ s⁻¹
t1/2 [2]: 4.84 min
B4: H4H14639D-DFO DAR 0.59 (bispecific antibody, V domains shown)
VH 1: B1 VH 1
VH 2: B1 VH 2
VL: [here about 100 residues without letters]
modifications: p-SCN-Bn-DFO on primary amines, sites not stated; average DAR 0.59 per antibody
